This passage reports binding signal results from article PMC9911399, “Two distinct binding modes provide the RNA-binding protein RbFox with extraordinary sequence specificity”.

Where a chain is given by its changes, count along the chain named. The list shows a part of the results.

First the molecules themselves.
T1: RBFOX1 RRM RbFoxmut (Fox-RRM*) (Homo sapiens, UniProt Q9NWB1 109-208, R118D;E147R;N151S;E152T)
T1 sequence: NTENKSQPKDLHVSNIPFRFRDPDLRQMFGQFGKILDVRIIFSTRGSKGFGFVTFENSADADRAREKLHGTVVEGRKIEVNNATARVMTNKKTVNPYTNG

B1: GAUCCGC (DNA:RNA)
RNA: GGGAGACCGGAAUUCAGAUUGUCCGAUCCGCUUAAAUCCCGUCGUAGCCACCA
DNA 1: CAATCTGAATTCCGGTCTCCC
DNA 2: TGGTGGCTACGACGGGATT
B2: UGCAAAU (DNA:RNA)
RNA: GGGAGACCGGAAUUCAGAUUGUCCUGCAAAUUUAAAUCCCGUCGUAGCCACCA
DNA 1: CAATCTGAATTCCGGTCTCCC
DNA 2: TGGTGGCTACGACGGGATT
B3: CAGCUAA (DNA:RNA)
RNA: B1 RNA with G25C, U27G, C29U, G30A, C31A
DNA 1: CAATCTGAATTCCGGTCTCCC
DNA 2: TGGTGGCTACGACGGGATT
B4: ACACAAG (DNA:RNA)
RNA: B2 RNA with U25A, G26C, C27A, A28C, U31G
DNA 1: CAATCTGAATTCCGGTCTCCC
DNA 2: TGGTGGCTACGACGGGATT
B5: UGGCCCC (DNA:RNA)
RNA: B1 RNA with G25U, A26G, U27G, G30C
DNA 1: CAATCTGAATTCCGGTCTCCC
DNA 2: TGGTGGCTACGACGGGATT
B6: GUGCAGU (DNA:RNA)
RNA: B1 RNA with A26U, U27G, C29A, C31U
DNA 1: CAATCTGAATTCCGGTCTCCC
DNA 2: TGGTGGCTACGACGGGATT
B7: CACACAC (DNA:RNA)
RNA: B1 RNA with G25C, U27C, C28A, G30A
DNA 1: CAATCTGAATTCCGGTCTCCC
DNA 2: TGGTGGCTACGACGGGATT
B8: GAUUGGA (DNA:RNA)
RNA: B1 RNA with C28U, C29G, C31A
DNA 1: CAATCTGAATTCCGGTCTCCC
DNA 2: TGGTGGCTACGACGGGATT
B9: AAAGCUA (DNA:RNA)
RNA: B1 RNA with G25A, U27A, C28G, G30U, C31A
DNA 1: CAATCTGAATTCCGGTCTCCC
DNA 2: TGGTGGCTACGACGGGATT
B10: GCCCUCA (DNA:RNA)
RNA: B1 RNA with A26C, U27C, C29U, G30C, C31A
DNA 1: CAATCTGAATTCCGGTCTCCC
DNA 2: TGGTGGCTACGACGGGATT
B11: GAAAGAA (DNA:RNA)
RNA: B1 RNA with U27A, C28A, C29G, G30A, C31A
DNA 1: CAATCTGAATTCCGGTCTCCC
DNA 2: TGGTGGCTACGACGGGATT
B12: AAUCUCU (DNA:RNA)
RNA: B1 RNA with G25A, C29U, G30C, C31U
DNA 1: CAATCTGAATTCCGGTCTCCC
DNA 2: TGGTGGCTACGACGGGATT
B13: GAGUAAG (DNA:RNA)
RNA: B1 RNA with U27G, C28U, C29A, G30A, C31G
DNA 1: CAATCTGAATTCCGGTCTCCC
DNA 2: TGGTGGCTACGACGGGATT
B14: UCCCUAU (DNA:RNA)
RNA: B2 RNA with G26C, A28C, A29U
DNA 1: CAATCTGAATTCCGGTCTCCC
DNA 2: TGGTGGCTACGACGGGATT
B15: AGAUUGG (DNA:RNA)
RNA: B1 RNA with G25A, A26G, U27A, C28U, C29U, C31G
DNA 1: CAATCTGAATTCCGGTCTCCC
DNA 2: TGGTGGCTACGACGGGATT
B16: UCGAGUG (DNA:RNA)
RNA: B2 RNA with G26C, C27G, A29G, A30U, U31G
DNA 1: CAATCTGAATTCCGGTCTCCC
DNA 2: TGGTGGCTACGACGGGATT
B17: AUUUACC (DNA:RNA)
RNA: B1 RNA with G25A, A26U, C28U, C29A, G30C
DNA 1: CAATCTGAATTCCGGTCTCCC
DNA 2: TGGTGGCTACGACGGGATT
B18: GAUUUCU (DNA:RNA)
RNA: B1 RNA with C28U, C29U, G30C, C31U
DNA 1: CAATCTGAATTCCGGTCTCCC
DNA 2: TGGTGGCTACGACGGGATT
B19: UAUCACC (DNA:RNA)
RNA: B1 RNA with G25U, C29A, G30C
DNA 1: CAATCTGAATTCCGGTCTCCC
DNA 2: TGGTGGCTACGACGGGATT
B20: CUUAGAC (DNA:RNA)
RNA: B1 RNA with G25C, A26U, C28A, C29G, G30A
DNA 1: CAATCTGAATTCCGGTCTCCC
DNA 2: TGGTGGCTACGACGGGATT
B21: GCGGGAA (DNA:RNA)
RNA: B1 RNA with A26C, U27G, C28G, C29G, G30A, C31A
DNA 1: CAATCTGAATTCCGGTCTCCC
DNA 2: TGGTGGCTACGACGGGATT
B22: GCUGCUA (DNA:RNA)
RNA: B1 RNA with A26C, C28G, G30U, C31A
DNA 1: CAATCTGAATTCCGGTCTCCC
DNA 2: TGGTGGCTACGACGGGATT
B23: UUCUAAC (DNA:RNA)
RNA: B2 RNA with G26U, A28U, U31C
DNA 1: CAATCTGAATTCCGGTCTCCC
DNA 2: TGGTGGCTACGACGGGATT
B24: ACGCUGC (DNA:RNA)
RNA: B1 RNA with G25A, A26C, U27G, C29U
DNA 1: CAATCTGAATTCCGGTCTCCC
DNA 2: TGGTGGCTACGACGGGATT
B25: CAGCAUC (DNA:RNA)
RNA: B1 RNA with G25C, U27G, C29A, G30U
DNA 1: CAATCTGAATTCCGGTCTCCC
DNA 2: TGGTGGCTACGACGGGATT
B26: AUCUCGA (DNA:RNA)
RNA: B1 RNA with G25A, A26U, U27C, C28U, C31A
DNA 1: CAATCTGAATTCCGGTCTCCC
DNA 2: TGGTGGCTACGACGGGATT
B27: CCAACCC (DNA:RNA)
RNA: B1 RNA with G25C, A26C, U27A, C28A, G30C
DNA 1: CAATCTGAATTCCGGTCTCCC
DNA 2: TGGTGGCTACGACGGGATT
B28: AACGUUC (DNA:RNA)
RNA: B1 RNA with G25A, U27C, C28G, C29U, G30U
DNA 1: CAATCTGAATTCCGGTCTCCC
DNA 2: TGGTGGCTACGACGGGATT
B29: GUAUCGG (DNA:RNA)
RNA: B1 RNA with A26U, U27A, C28U, C31G
DNA 1: CAATCTGAATTCCGGTCTCCC
DNA 2: TGGTGGCTACGACGGGATT
B30: AGAUCGA (DNA:RNA)
RNA: B1 RNA with G25A, A26G, U27A, C28U, C31A
DNA 1: CAATCTGAATTCCGGTCTCCC
DNA 2: TGGTGGCTACGACGGGATT
B31: AUCGUCA (DNA:RNA)
RNA: B2 RNA with U25A, G26U, A28G, A29U, A30C, U31A
DNA 1: CAATCTGAATTCCGGTCTCCC
DNA 2: TGGTGGCTACGACGGGATT

For the experiment, the target named is T1, RBFOX1 RRM RbFoxmut (Fox-RRM*). Description: EMSA; HiTS-Eq, 1 nM pool, 10 min; buffer printed only for the single-RNA assays: 10 mM Tris pH 7.5, 150 mM NaCl, 3.4 mM EDTA, 0.001% NP-40, 30 C. Conditions: tags: His6 N-terminal (pET28a); label: 5' 32P. A digest of the protocol:
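Purified wild-type or mutant RbFox RRM at increasing concentrations was equilibrated with 1 nM of 5′-radiolabelled RNA carrying 7 randomized nucleotides for 10 min in 50 µL. Unbound RNA was separated by 8% native PAGE and sequenced. Relative association constants came from read-count changes of each RNA species compared with the control reaction, normalised to the cognate motif.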
For orientation: Mobility shift assays separate free from complexed probe on a gel.
Turning to B1, the binding signal was 0.0971 KA relative to UGCAUGU. Turning to B2, the binding signal is 0.0783 KA relative to UGCAUGU. As for B3, the figure is 0.115 KA relative to UGCAUGU; as for B4, 0.118 KA relative to UGCAUGU; as for B5, 0.0665 KA relative to UGCAUGU. For B6 the value was 0.105 KA relative to UGCAUGU; for B7, 0.0688 KA relative to UGCAUGU; for B8, 0.0641 KA relative to UGCAUGU. As for B9, the figure is 0.0949 KA relative to UGCAUGU; as for B10, 0.0672 KA relative to UGCAUGU; as for B11, 0.0926 KA relative to UGCAUGU.

On to B12, for which the binding signal is 0.0366 KA relative to UGCAUGU. Turning to B13, the binding signal was 0.11 KA relative to UGCAUGU. As for B14, the figure is 0.087 KA relative to UGCAUGU; as for B15, 0.125 KA relative to UGCAUGU; as for B16, 0.167 KA relative to UGCAUGU. For B17 the value was 0.108 KA relative to UGCAUGU. For B18 the value was 0.0523 KA relative to UGCAUGU; for B19, 0.0566 KA relative to UGCAUGU; for B20, 0.068 KA relative to UGCAUGU.

On to B21, for which the binding signal is 0.114 KA relative to UGCAUGU. Take B22: the binding signal is 0.0972 KA relative to UGCAUGU. In the case of B23, the binding signal is 0.108 KA relative to UGCAUGU. For B24 the value was 0.109 KA relative to UGCAUGU; for B25, 0.307 KA relative to UGCAUGU. As for B26, the figure is 0.0871 KA relative to UGCAUGU; as for B27, 0.0844 KA relative to UGCAUGU. For B28 the value was 0.0756 KA relative to UGCAUGU; for B29, 0.156 KA relative to UGCAUGU.

For the molecule B30, the binding signal is 0.0898 KA relative to UGCAUGU. On to B31, for which the binding signal is 0.133 KA relative to UGCAUGU.
